Among all 400,000 compounds or so, about 2,200 (0.55%) were called active. Inconclusive means that the source gave no clear call. Such entries were picked first, then a sample of the others. The call rests on the fitted dose curve; in most records, active means well fitted inhibition curve with a large enough effect; inconclusive means small, poorly fitted or top-dose-only effect, or another doubt; inactive means no such curve, though single readings can be large or run the other way. Where the call is inconclusive, the potency comes from a doubtful curve fit. Positions of bridges follow the written chain, without caps; N, C: chain ends. Non-standard residues stand in square brackets, D forms with d. Residues, ends and D or L forms follow the SMILES beside them. ξ: configuration not given here. *: point of attachment. Octanoyl(6-Me) = CCC(C)CCCCC(=O)*; ξThr(3R) = C[C@@H](O)C(N)C(=O)O; dDab = NCC[C@@H](N)C(=O)O; Dab = NCC[C@H](N)C(=O)O
Molecular target: DNA polymerase kappa (Homo sapiens) (UniProt Q9UBT6)
Assay: qHTS for Inhibitors of Polymerase Kappa
Conditions: purified Pol kappa, fluorescent DNA synthesis assay, 10 min; series mostly up to 107 µM; activity, negative = inhibition: at the top concentration
Outline: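 Here, compound and 10 nM enzyme are combined for 15 min at room temperature; adding 50 nM substrate (final) starts DNA synthesis, tracked by fluorescence at 0 and 10 min against buffer-only wells.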
On the % scale 0 is the no-effect control and ±100 the full control effect; potency means the concentration at half of the fitted maximal effect; tags describe the fitted curve by direction and shape.

Sequence of UniProt Q9UBT6 (Q9UBT6 whole entry, looked up): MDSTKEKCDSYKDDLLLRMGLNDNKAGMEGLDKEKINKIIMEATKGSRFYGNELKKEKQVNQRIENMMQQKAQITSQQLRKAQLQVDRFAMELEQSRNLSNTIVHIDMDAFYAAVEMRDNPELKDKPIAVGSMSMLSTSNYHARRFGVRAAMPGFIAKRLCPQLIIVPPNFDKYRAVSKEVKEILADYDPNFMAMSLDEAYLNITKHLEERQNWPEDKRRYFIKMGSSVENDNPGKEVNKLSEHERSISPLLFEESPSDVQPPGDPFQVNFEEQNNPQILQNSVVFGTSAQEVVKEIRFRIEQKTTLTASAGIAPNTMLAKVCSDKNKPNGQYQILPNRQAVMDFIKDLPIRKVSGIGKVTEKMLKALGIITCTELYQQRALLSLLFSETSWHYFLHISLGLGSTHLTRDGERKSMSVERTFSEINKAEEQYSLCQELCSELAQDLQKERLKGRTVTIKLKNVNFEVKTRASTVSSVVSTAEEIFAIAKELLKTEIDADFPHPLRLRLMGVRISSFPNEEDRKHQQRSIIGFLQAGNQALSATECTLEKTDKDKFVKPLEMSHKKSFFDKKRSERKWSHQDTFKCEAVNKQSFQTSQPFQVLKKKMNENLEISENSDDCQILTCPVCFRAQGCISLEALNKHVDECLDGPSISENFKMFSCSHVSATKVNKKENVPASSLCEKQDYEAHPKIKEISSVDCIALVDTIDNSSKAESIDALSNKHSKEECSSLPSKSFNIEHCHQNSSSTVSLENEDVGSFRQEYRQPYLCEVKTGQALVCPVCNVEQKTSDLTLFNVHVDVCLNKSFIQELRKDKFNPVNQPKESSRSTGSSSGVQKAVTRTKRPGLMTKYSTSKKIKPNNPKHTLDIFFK

Potency, active:
NC1=NC(=O)/C(=C\c2ccco2)S1 39.8 µM, O=C(Cn1cnc2sc(-c3ccccc3)cc2c1=O)NCc1ccco1 31.6 µM, O=c1cc(CSc2nnnn2-c2ccccc2)[nH]c2[nH]n(-c3ccccc3)c(=O)c12 39.8 µM, CC[n+]1c(/C=C/N(C)c2ccccc2)n(-c2ccccc2)c2ccc(-c3nc4ccccc4s3)cc21 21.2 µM, N#Cc1c(SCC(=O)Nc2nccs2)sc2c(O)cc(=O)[nH]c12 44.7 µM, O=C(COC(=O)Cc1cccc(C(F)(F)F)c1)NCc1ccco1 44.7 µM, Nc1ccc(S(=O)(=O)Nc2nccs2)cc1N=Nc1ccccc1[N+](=O)[O-] 28.2 µM, O=C(OCc1cc(=O)n2c(n1)sc1ccccc12)c1ccc(O)cc1O 79.4 µM, N#CC1=C(N)C2=C(N3CCCCC3)CCCC2C1(C#N)C#N (stereo not drawn) 50.1 µM, CN1CCOC1c1ccc(C2OCCN2C)cc1 (stereo not drawn) 39.8 µM, C[n+]1ccc(C(c2c[nH]c3ccccc23)c2cc[n+](C)c3ccccc23)c2ccccc21 79.4 µM, O=C(CCN1C(=O)/C(=C\C=C\c2ccccc2)SC1=S)Nc1cccc(C(=O)O)c1 79.4 µM, CN(C)c1ccc(/C=C/N2C=CCc3c2ccc2ccccc32)cc1 50.1 µM

Potency, inconclusive:
Cc1ccc(S(=O)(=O)Nc2nc3ccccc3nc2Nc2cccc(S(=O)(=O)N3CCCC3)c2)cc1 31.6 µM [inhibitor, partial curve, poor fit], O=S(=O)(Nc1ccc(O)c(Sc2nc3ccccc3s2)c1)c1cc(Cl)ccc1Cl 89.1 µM [inhibitor, partial curve, poor fit], CC(C)c1ccc(NC(=O)CSc2nc(=O)n(CCN3CCOCC3)c3c2CCC3)cc1 89.1 µM [inhibitor, single point], CC1=C(C#N)C(=O)NC(=O)/C1=C\c1ccc(-c2cc(C)c(C)cc2[N+](=O)[O-])o1 100 µM [inhibitor, single point], CC[C@@H](C)[C@@H](O)[C@H](C)C(=O)[C@H](C)/C=C(\C)C[C@H](C)[C@@H]1OC(=O)[C@H]1CC 33.6 µM [inhibitor, single point], O=C(CCCN1C(=O)/C(=C/c2ccco2)SC1=S)Nc1ccccc1C(=O)O 35.5 µM [inhibitor, full curve, poor fit], COc1ccc(OC)c(NC(=O)c2nc(S(=O)(=O)Cc3ccc(F)cc3)ncc2Cl)c1 89.1 µM [inhibitor, single point], CCOc1ccccc1N1CSC2=C(C#N)C(c3c(OC)ccc4ccccc34)CC(=O)N2C1 (stereo not drawn) 1 µM [inhibitor, full curve, poor fit], Cc1cc(-c2csc(N)n2)c(C)n1-c1ccccc1 79.4 µM [inhibitor, partial curve, poor fit], CCOC(=O)C1=C(C)NC(C)=C(C(=O)OCC)C1c1c(F)c(F)c(F)c(F)c1F 29.9 µM [inhibitor, single point], Cc1cc(N2CCC(C)CC2)nc2ccc(NC(=O)Cc3ccccc3Br)cc12 89.1 µM [inhibitor, single point], Cc1ccc(NCCN(C)C)c2c(=O)c3cc(O)ccc3sc12 89.1 µM [inhibitor, single point], NS(=O)(=O)c1ccc(N/N=C/c2ccc(O)cc2O)c([N+](=O)[O-])c1 15.8 µM [inhibitor, partial curve, poor fit], O=C1C=CC(=O)N1c1ccccc1N1C(=O)C=CC1=O 50.1 µM [inhibitor, partial curve, poor fit], Cc1nnc(NC(=O)Cc2cccs2)s1 89.1 µM [inhibitor, single point], O=c1cc(-c2ccccc2Cl)oc2c(NS(=O)(=O)c3cccs3)ccc(O)c12 89.1 µM [inhibitor, single point], COc1cc2c(C#N)c(N3CCCC3)nc(N)c2c(N)n1 100 µM [inhibitor, partial curve, poor fit], CN(Cc1ccco1)c1ncnc2ccc(-c3cccc(C#N)c3)cc12 39.8 µM [inhibitor, single point], O=C1CC(=O)N(CCNc2ncc(C(F)(F)F)cc2Cl)C(=O)N1 56.2 µM [inhibitor, partial curve, poor fit], CC1=C(C#N)C(=O)NC(=O)/C1=C/c1ccc(-c2ccc(S(N)(=O)=O)cc2)o1 79.4 µM [inhibitor, partial curve, poor fit], O=C(OCc1cc(=O)n2nc(-c3cccs3)sc2n1)c1ccccc1Cl 89.1 µM [inhibitor, single point], Nc1c(/C=C2/C=CC(=O)C(O)=C2)c(=O)nc2sc(CC(=O)N3CCCCC3)nn12 0.708 µM [inhibitor, full curve, poor fit], COc1cc(OC)c2ccc(=O)oc2c1C(CC(=O)N1CCCCC1)c1ccc2c(c1)OCO2 (stereo not drawn) 89.1 µM [inhibitor, partial curve], CC(=O)N1c2ccc(S(=O)(=O)Nc3ccc(C)c(Cl)c3)cc2CC1C (stereo not drawn) 89.1 µM [inhibitor, single point], COc1ccc(NC(=O)/C=C/c2ccc(Cl)cc2)cc1 42.3 µM [inhibitor, partial curve, poor fit], Cc1ccnc(SCC(=O)Nc2sccc2C#N)n1 100 µM [inhibitor, single point], N#C/C(=C\c1ccc(N2CCOCC2)o1)c1nc2ccccc2[nH]1 56.2 µM [inhibitor, partial curve, poor fit], O=C1c2cccc3c(O)ccc(c23)C(=O)N1Cc1ccco1 79.4 µM [inhibitor, single point], CC(Oc1ccc(Cl)cc1Cl)C(=O)NC(Cc1ccccc1)C(=O)O (stereo not drawn) 89.1 µM [inhibitor, partial curve, poor fit], Cc1cc(C)c2cc(C#N)c(SCC(=O)Nc3ccc4c(c3)OCO4)nc2c1 3.98 µM [inhibitor, partial curve, poor fit], Cc1cccc(NC(=O)CN2C(=O)N/C(=C\c3cccn3-c3cccc(C(=O)O)c3)C2=O)c1 79.4 µM [inhibitor, partial curve, poor fit], Cc1ccc(S(=O)(=O)NN2C(=O)/C(=C/c3ccc(C(=O)O)cc3)SC2=S)cc1 70.8 µM [inhibitor, single point], Nc1cc2c(cc1Br)-c1ccc(F)cc1C2=O 79.4 µM [inhibitor, partial curve], COc1cc2cc3c4cc(OC)c(OC)cc4cc[n+]3c(C)c2cc1OC 2.82 µM [inhibitor, partial curve], COc1cccc(/C=N/Nc2cc(Cl)nc(C)n2)c1O 89.1 µM [inhibitor, partial curve, poor fit], COc1ccc(C)cc1-n1nnnc1SC/C(O)=C(\C#N)c1nc2ccccc2[nH]1 89.1 µM [inhibitor, single point], N#C/C(=C\c1ccc(C(=O)O)cc1)c1nc2sc3c(c2c(=O)[nH]1)CCCC3 56.2 µM [inhibitor, partial curve, poor fit], O=C(CSc1nc2ccccc2c(=O)n1-c1ccccc1)NC(=O)CN1CCCC1=O 89.1 µM [inhibitor, single point], Nc1cnccn1 89.1 µM [inhibitor, partial curve, poor fit], CCC(C)CCCCC(=O)N[C@@H](CCN)C(=O)N[C@H](C(=O)N[C@@H](CCN)C(=O)N[C@H]1CCNC(=O)C([C@@H](C)O)NC(=O)[C@@H](CCN)NC(=O)[C@H](CCN)NC(=O)[C@H](CC(C)C)NC(=O)[C@@H](CC(C)C)NC(=O)[C@H](CCN)NC1=O)[C@@H](C)O (stereo partly drawn) ({Octanoyl(6-Me)}-[Dab]T[Dab][Dab][Dab][dL]L[Dab][dDab][ξThr(3R)]; lactam 4-C) 39.8 µM [inhibitor, single point]

activity, negative = inhibition, inactive:
Cc1ccc2c(c1)C(c1ccccc1)N(C(=O)c1ccc(Br)cc1)CC(=O)N2 (stereo not drawn) -2.05%, NC(=O)OC[C@H](O)COc1ccc(Cl)cc1 1.71% [at 19.4 µM], CCCCOC(=O)c1ccc(-n2nnc3c(sc4nc(C)cc(C)c43)c2=O)cc1 4.35%, COc1ccc(/C=C/C(=O)Nc2ccc(NC(C)=O)cc2)cc1S(=O)(=O)N1CCOCC1 -14.6%, CCCCC1NC(C(=O)O)CS1 (stereo not drawn) 1.79%, Cc1ccc(-c2cnc(-c3ccncc3)o2)cc1 -21.5%, O=C(NCc1ccccc1F)C(=O)NCC(c1ccc2c(c1)OCO2)N1CCOCC1 (stereo not drawn) -3.64% [at 60.1 µM], CC(=O)Oc1ccc2cc(-c3nc4c(s3)CCc3ccccc3-4)c(=O)oc2c1 -3.6%, CCCCCCCSc1nsc(N)n1 -2.03%, CCCc1oc(C(=O)O)cc1CN1CCOCC1 -3.28%, CC(=O)c1ccc(NC(=O)Cn2c(=O)n(Cc3ccco3)c(=O)c3sc4ccccc4c32)cc1 -11.7%, CC(=O)NC1CCCC1C#N (stereo not drawn) 3.19%, Cc1cc(C)c(S(=O)(=O)NCCc2csc3nc(-c4ccc(Cl)cc4)nn23)c(C)c1 -11.2% [at 60.1 µM], CCOCCCNC(=O)c1oc2ccc3c(c2c1C)C(O)CC(C)(C)O3 (stereo not drawn) 3.89% [at 60.1 µM], COc1cccc2cc(C(=O)N(Cc3cccs3)Cc3cccs3)c(=O)oc12 0.693%

Reference: PubChem BioAssay AID588579 (National Center for Advancing Translational Sciences (NCATS), 2011)
